Columns and labels:
A549-ACE2 cells = settings: read-out: CC50 A549-ACE2; 72h incubation
Experimental: (§1) The cytotoxicity of selected compounds was assessed in Caco2, Huh7 and A549-ACE2 cells after a 72h incubation with the compounds. Specifically, cell viability in the presence of compound was quantified using the CellTiter-Glo 2.0 assay (Promega) and normalized against controls containing an equivalent amounts of DMSO.

Caco-2 cells = settings: read-out: CC50 Caco-2; 72h incubation
Experimental: as §1

Row | SMILES | CC50 (A549-ACE2 cells) [µM] | CC50 (Caco-2 cells) [µM]
1 | CC(C)C[C@H](NC(=O)OCc1ccccc1)C(=O)N[C@@H](CC1CCNC1=O)C(O)S(=O)(=O)[O-].[Na+] (stereo partly shown) [GC-376, reference compound] | > 100 | > 100
2 | CC(C)(C)NC(=O)N[C@H](C(=O)N1C[C@H]2[C@@H]([C@H]1C(=O)N[C@@H](C[C@@H]1CCNC1=O)C(=O)C(N)=O)C2(C)C)C(C)(C)C [ML1000] | > 100 | > 100
